The source of these data is article PMC9087378 (Immunity, 2021).

The test deals with Full length recombinant Plasmodium falciparum circumsporozoite protein (rPfCSP), biotinylated (Plasmodium falciparum NF54/3D7, biotin (BirA enzymatic reaction)). The test can be described thus: flow cytometry on cells. (A flow cytometer gives signals particle by particle.)

B1: iGL-CIS43 B cell receptor on peripheral B cells of H^iGL-CIS43κ^iGL-CIS43 knock-in mice (receptor)
VH: QVQLVQSGAEVKKPGASVKVSCKASGYTFTSYAMHWVRQAPGQRLEWMGWINAGNGNTKYSQKFQGRVTITRDTSASTAYMELSSLRSEDTAVYYCALLTVVTPDDAFDIWGQGTMVTVSS
VL: [about 100 residues omitted]FGGGTKVEIK
Regarding B1, the binding result was “binds”.
